Measurements from PubChem BioAssay AID504339 (National Center for Advancing Translational Sciences (NCATS), 2011).
Values joined by “and” are separate entries in the source; they are usually repeats but may differ in a detail not shown here. Identical values can stand only once. Among all 390,000 compounds or so, about 17,000 (4.4%) were called active. The shares of active, inactive and inconclusive entries below differ from those in the screen. Calls come from the whole dose curve; as a rule, active = well fitted inhibition curve with a large enough effect; inconclusive = small, poorly fitted or top-dose-only effect; inactive = no such curve, though single readings can be large or run the other way. Potencies of inconclusive entries are doubtful fits and often do not repeat.

What follows are compounds tested against Lysine-specific demethylase 4A (Homo sapiens) (UniProt O75164) (assay: qHTS Assay for Inhibitors of JMJD2A-Tudor Domain). Settings: AlphaScreen JMJD2A-Tudor / H3K4me3 peptide binding; series mostly up to 114 µM.
Note: nearly all actives have a fitted effect of over 50% in size.
Potency is the fitted concentration of half-maximal effect; tags give direction and shape of the fitted curve.

UniProt O75164, sequence (O75164 whole entry, looked up, the tested form may be a part): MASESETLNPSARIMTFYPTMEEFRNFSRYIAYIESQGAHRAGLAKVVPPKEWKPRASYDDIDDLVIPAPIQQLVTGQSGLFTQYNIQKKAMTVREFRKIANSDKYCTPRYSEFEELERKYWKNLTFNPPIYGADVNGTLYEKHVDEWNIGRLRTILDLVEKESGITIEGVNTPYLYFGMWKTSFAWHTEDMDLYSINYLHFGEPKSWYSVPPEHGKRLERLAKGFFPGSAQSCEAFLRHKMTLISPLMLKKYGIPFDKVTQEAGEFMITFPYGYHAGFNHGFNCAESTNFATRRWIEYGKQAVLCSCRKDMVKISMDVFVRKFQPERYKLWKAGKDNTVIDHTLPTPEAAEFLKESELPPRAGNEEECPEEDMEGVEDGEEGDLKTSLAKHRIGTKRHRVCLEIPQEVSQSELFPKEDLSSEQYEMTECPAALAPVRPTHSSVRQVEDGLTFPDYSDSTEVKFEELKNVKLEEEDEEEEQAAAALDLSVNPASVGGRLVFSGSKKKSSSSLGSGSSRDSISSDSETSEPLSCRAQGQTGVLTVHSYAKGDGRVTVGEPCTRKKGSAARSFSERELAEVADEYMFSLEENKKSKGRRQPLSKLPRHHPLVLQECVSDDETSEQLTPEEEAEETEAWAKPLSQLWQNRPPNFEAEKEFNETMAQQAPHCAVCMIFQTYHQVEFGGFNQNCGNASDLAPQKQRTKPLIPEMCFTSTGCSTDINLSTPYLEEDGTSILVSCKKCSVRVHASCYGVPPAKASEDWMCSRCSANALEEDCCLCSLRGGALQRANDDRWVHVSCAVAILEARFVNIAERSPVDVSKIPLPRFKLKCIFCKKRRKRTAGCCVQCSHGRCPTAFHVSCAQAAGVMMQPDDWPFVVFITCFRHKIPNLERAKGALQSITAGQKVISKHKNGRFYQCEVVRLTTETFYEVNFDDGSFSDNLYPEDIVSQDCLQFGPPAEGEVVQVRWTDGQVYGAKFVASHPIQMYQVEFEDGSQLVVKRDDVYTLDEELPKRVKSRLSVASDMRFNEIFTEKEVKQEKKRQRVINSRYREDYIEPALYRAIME

SMILES	Potency
O=C(COC(=O)CSc1ccc(F)cc1)NCc1ccco1	inactive
Cc1ccc(C)c(NC(=O)CSc2nnc(-c3cc4occc4n3C)n2-c2ccccc2C)c1	inconclusive: 22.4 µM [inhibitor, full curve]
COC(=O)c1cc(NCc2ccc3c(c2)OCO3)ccc1N1CCOCC1	inconclusive: 50.1 µM [inhibitor, partial curve]
O=C(O)/C=C\C(=O)Nc1ccc(N2CCN(c3ccc(F)cc3)CC2)cc1	inconclusive: 44.7 µM [inhibitor, partial curve]
CCCc1nc2oc3cc(OC)ccc3c(=O)c2c(=O)n1Cc1ccco1	inconclusive: 50.1 µM [inhibitor, partial curve]
Cn1c(=O)c2c(nc(NCCc3ccccc3)n2Cc2ccc(Cl)cc2)n(C)c1=O	inconclusive: 31.6 µM [inhibitor, full curve]
CCCCCC(=O)Nc1cccc(C2=NOC3(C2)C[C@@H](C(N)=O)N(C(=O)c2cc([N+](=O)[O-])cc([N+](=O)[O-])c2C)C3)c1 (some centres not stated)	inconclusive: 56.2 µM [inhibitor, partial curve]
C=C(C)CN(CC)C(=O)CCc1nnc(CCCc2ccccc2)o1	inconclusive: 3.98 µM [inhibitor, single point]
Cc1ccc(C2=NN=C(NC(=O)CSc3nncn3C)SC2)cc1	inconclusive: 44.7 µM [inhibitor, partial curve]
Cc1cc2c(s1)c1cnn(Cc3ccc(Cl)cc3)c(=O)c1n2C	active: 44.7 µM
Cc1cc2cc(CNC(=S)Nc3ccc(OC(F)(F)F)cc3)ccc2n1C	inconclusive: 100 µM [inhibitor, partial curve]
Cc1ccc(NC(=O)C(=O)NCc2ccc(/C=C(/C#N)C(=O)NCc3cccnc3)o2)cc1C	inactive
COc1ccc(N2CCN(C(=O)C3CCN(S(=O)(=O)c4cn(C)cn4)CC3)CC2)cc1	inactive
C=CCNC(=O)c1ccccc1NC(=O)c1ccc(Cl)c(S(=O)(=O)Nc2cccc(C)c2C)c1	inconclusive: 20 µM [inhibitor, partial curve]
O=S(=O)(/N=S1/CC=CCN1S(=O)(=O)c1ccccc1)c1ccccc1 (configuration not stated)	inconclusive: 39.8 µM [inhibitor, partial curve]
CCCn1cc(S(=O)(=O)c2ccc(Cl)cc2)c(=O)c2cc(OC)ccc21	active: 22.4 µM
COc1cc(C(=O)NC(=S)Nc2ccc([N+](=O)[O-])cc2)cc(OC)c1OC	inconclusive: 35.5 µM [inhibitor, single point]
Nc1ccc(O)c([N+](=O)[O-])c1	inactive
O=C(Nc1ccc(Nc2ccccc2)cc1)C(Cl)Cl	inconclusive: 50.1 µM [inhibitor, partial curve]
COc1ccc2c(c1)c(/C=N/Nc1nc3ccccc3[nH]1)c(C)n2C	inconclusive: 35.5 µM [inhibitor, partial curve]
N#CC1=C(N)NC(SCc2ccccc2)=C(C#N)C12CCCC2	inconclusive: 44.7 µM [inhibitor, single point]

SMILES	Potency
COc1ccc(CCNc2ncnc3c2[nH]c2cc(OC)c(OC)cc23)cc1OC	inconclusive: 44.7 µM [inhibitor, partial curve]
Cc1ccc(NC(=O)C2CCN(c3nc(-c4ccc(C(C)C)cc4)no3)CC2)c(Cl)c1	inactive
Cc1ccc(C(=O)Oc2cc(-c3ccc4c(c3)OCO4)cc(=O)c3c(C)oc(C)c23)cc1	inconclusive: 56.2 µM [inhibitor, partial curve]
COc1ccccc1NC(=O)Cn1c(=O)n(CC(=O)NCc2ccccc2Cl)c(=O)c2sccc21	inactive
O=C(NCc1nnc(SCC(=O)N2CCCC2)o1)c1ccccc1	inactive
O=C(NNC(=O)c1cc2ccccc2[nH]1)OCc1ccccc1	inconclusive: 39.8 µM [inhibitor, single point]
COc1ccc2c(c1)CC/C2=N\NC(=O)c1ccccc1	inactive
Cc1ccc2c(CNCc3ccc(C)o3)c(C(=O)O)n(Cc3ccc(F)cc3)c2c1	inconclusive: 39.8 µM [inhibitor, full curve, poor fit]
COCCCn1c(-c2ccc(S(=O)(=O)N3CCOCC3)cc2)csc1=Nc1ccccc1	inconclusive: 20 µM [inhibitor, partial curve] and inconclusive: 89.1 µM [inhibitor, partial curve]
COc1ccc(C2CC(c3ccco3)n3ncnc3N2)cc1 (configuration not stated)	inconclusive: 15.8 µM [inhibitor, full curve, poor fit]
O=C(/C=C/c1ccccc1)NC(NC(=S)Nc1cccc(Cl)c1)C(Cl)(Cl)Cl (configuration not stated)	inactive
Cc1c(C=O)c2ccccn2c1C(=O)c1cccc([N+](=O)[O-])c1	inconclusive: 100 µM [inhibitor, partial curve, poor fit]
CC(=O)N1CCc2cc(S(=O)(=O)CCC(=O)N(C)c3cc(C)ccc3C)ccc21	inconclusive: 25.1 µM [inhibitor, full curve, poor fit]
O=C1NN(c2ccccc2)C(=O)/C1=C/c1ccc(Sc2cccc3ccccc23)o1	inconclusive: 20 µM [inhibitor, full curve]
Cc1ccc(-c2csc(=Nc3ccccc3)n2Cc2ccc3c(c2)OCO3)cc1	active: 56.2 µM
CCOc1ccc(OCCOCCN2CCCC2)cc1	active: 28.2 µM
O=C1Nc2ccc(F)cc2C12Nc1ccccc1-c1nnc(SCc3ccccc3)nc1O2 (configuration not stated)	inconclusive: 44.7 µM [inhibitor, partial curve, poor fit]
O=C(NNC(=S)Nc1ccc(Cl)c(Cl)c1)c1ccccn1	active: 25.1 µM
NS(=O)(=O)c1ccc(NC(=O)c2cccc(N3C(=O)c4ccccc4C3=O)c2)cc1	inconclusive: 28.2 µM [inhibitor, partial curve]
O=C(NC1CCN(Cc2ccccc2)CC1)c1ccc(Cn2c(=O)c3ccccc3n(Cc3ccc(F)cc3)c2=O)cc1	inactive
CCOc1ccc(-n2c(C)nc3cc(C(=O)NCc4ccc5c(c4)OCO5)ccc32)cc1	inconclusive: 44.7 µM [inhibitor, partial curve]
